Laboratory results from patent US20240252628A1 (ACCELERON PHARMA, published 2024).

B1: ActRIIB(F82I-N83R)-G1Fc (Fc fusion)
chain: GRGEAETRECIYYNANWELERTNQSGLERCEGEQDKRLHCYASWRNSSGTIELVKKGCWLDDIRCYDRQECVATEENPQVYFCCCEGNFCNERFTHLPEAGGPEVTYEPPPTAPTG[human IgG1 Fc and a few adjoining residues not shown]
B2: ActRIIB(F82T)-G1Fc (Fc fusion)
chain: GRGEAETRECIYYNANWELERTNQSGLERCEGEQDKRLHCYASWRNSSGTIELVKKGCWLDDTNCYDRQECVATEENPQVYFCCCEGNFCNERFTHLPEAGGPEVTYEPPPTAPTG[human IgG1 Fc and a few adjoining residues not shown]
B3: ActRIIB(F82T-N83R)-G1Fc (Fc fusion)
chain: GRGEAETRECIYYNANWELERTNQSGLERCEGEQDKRLHCYASWRNSSGTIELVKKGCWLDDTRCYDRQECVATEENPQVYFCCCEGNFCNERFTHLPEAGGPEVTYEPPPTAPTG[human IgG1 Fc and a few adjoining residues not shown]
B4: ActRIIB(L79H)-G1Fc (Fc fusion)
chain: GRGEAETRECIYYNANWELERTNQSGLERCEGEQDKRLHCYASWRNSSGTIELVKKGCWHDDFNCYDRQECVATEENPQVYFCCCEGNFCNERFTHLPEAGGPEVTYEPPPTAPTG[human IgG1 Fc and a few adjoining residues not shown]
B5: ActRIIB(L79H-F82I)-G1Fc (Fc fusion)
chain: GRGEAETRECIYYNANWELERTNQSGLERCEGEQDKRLHCYASWRNSSGTIELVKKGCWHDDINCYDRQECVATEENPQVYFCCCEGNFCNERFTHLPEAGGPEVTYEPPPTAPTG[human IgG1 Fc and a few adjoining residues not shown]
B6: ActRIIB(F82K-N83R)-G1Fc (Fc fusion)
chain: GRGEAETRECIYYNANWELERTNQSGLERCEGEQDKRLHCYASWRNSSGTIELVKKGCWLDDKRCYDRQECVATEENPQVYFCCCEGNFCNERFTHLPEAGGPEVTYEPPPTAPTG[human IgG1 Fc and a few adjoining residues not shown]
B7: ActRIIB(L79H-F82K)-G1Fc (Fc fusion)
chain: GRGEAETRECIYYNANWELERTNQSGLERCEGEQDKRLHCYASWRNSSGTIELVKKGCWHDDKNCYDRQECVATEENPQVYFCCCEGNFCNERFTHLPEAGGPEVTYEPPPTAPTG[human IgG1 Fc and a few adjoining residues not shown]

target: T1, activin A (UniProt P08476 311-426); test: cell-based or functional assay
T1 sequence (looked up): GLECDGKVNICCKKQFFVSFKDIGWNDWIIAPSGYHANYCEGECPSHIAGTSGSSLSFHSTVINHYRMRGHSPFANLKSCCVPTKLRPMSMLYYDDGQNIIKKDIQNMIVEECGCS

| Binder | IC50, A204 pGL3(CAGA)12 luciferase reporter [nM] |
| --- | --- |
| B1 | 1.67 |
| B2 | 0.1 |
| B3 | 1.52 |
| B4 | > 10 |
| B5 | > 100 |
| B6 | 1.32 |

target: T2, GDF11 (UniProt O95390 299-407); test: cell-based or functional assay
T2 sequence (looked up): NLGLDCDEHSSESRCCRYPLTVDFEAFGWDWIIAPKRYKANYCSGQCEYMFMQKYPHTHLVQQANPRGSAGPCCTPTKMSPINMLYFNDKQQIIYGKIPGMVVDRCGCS

| Binder | IC50, A204 pGL3(CAGA)12 luciferase reporter [nM] |
| --- | --- |
| B1 | 9.95 |
| B2 | 0.27 |
| B3 | 17.9 |
| B4 | 0.24 |
| B5 | 0.36 |
| B7 | > 100 |

target: T3, BMP10 (UniProt O95393 317-424); test: cell-based or functional assay
T3 sequence (looked up): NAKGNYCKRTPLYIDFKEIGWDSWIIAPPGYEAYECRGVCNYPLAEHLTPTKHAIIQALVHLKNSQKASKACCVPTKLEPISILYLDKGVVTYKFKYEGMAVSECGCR

| Binder | IC50, A204 pGL3(CAGA)12 luciferase reporter |
| --- | --- |
| B1 | 13.2 nM |
| B2 | 70 pM |
| B3 | 12.6 nM |
| B4 | > 100 nM |
| B5 | > 100 nM |
| B6 | 0.53 nM |
| B7 | > 100 nM |

target: T4, GDF8 (UniProt O14793 267-375); test: cell-based or functional assay
T4 sequence (looked up): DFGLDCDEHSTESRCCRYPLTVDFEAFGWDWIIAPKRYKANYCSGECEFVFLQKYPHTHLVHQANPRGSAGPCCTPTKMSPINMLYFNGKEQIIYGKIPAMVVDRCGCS

| Binder | IC50, A204 pGL3(CAGA)12 luciferase reporter [nM] |
| --- | --- |
| B2 | 2.17 |
| B4 | 5.76 |

target: T5, activin B (UniProt P09529 293-407); test: cell-based or functional assay
T5 sequence (looked up): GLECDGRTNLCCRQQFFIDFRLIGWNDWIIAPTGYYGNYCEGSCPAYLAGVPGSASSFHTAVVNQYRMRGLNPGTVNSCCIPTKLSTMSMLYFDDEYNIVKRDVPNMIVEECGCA

| Binder | IC50, A204 pGL3(CAGA)12 luciferase reporter |
| --- | --- |
| B1 | 80 pM |
| B2 | 90 pM |
| B3 | 0.11 nM |
| B4 | 70 pM |
| B5 | 0.15 nM |
| B6 | 90 pM |
| B7 | 0.1 nM |
